In paper PMC11791083 one finds binding data, which are given here for four molecules.

Sequences of proteins named here, by UniProt entry; tags and fusion partners are left off.
UniProt Q15717: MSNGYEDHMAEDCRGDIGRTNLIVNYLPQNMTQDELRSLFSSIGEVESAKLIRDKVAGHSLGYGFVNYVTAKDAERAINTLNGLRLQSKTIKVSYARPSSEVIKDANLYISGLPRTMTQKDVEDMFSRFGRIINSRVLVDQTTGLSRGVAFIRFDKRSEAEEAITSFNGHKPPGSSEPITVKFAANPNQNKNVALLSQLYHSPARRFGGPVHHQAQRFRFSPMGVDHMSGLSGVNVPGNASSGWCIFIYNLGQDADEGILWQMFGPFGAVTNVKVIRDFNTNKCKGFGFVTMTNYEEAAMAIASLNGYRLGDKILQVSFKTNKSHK

Test [1] addresses ELAV-like protein 1, FLAG-tagged (ELAVL1-FLAG) (human), Q15717. Kind of test: co-IP; anti-FLAG M2 magnetic beads on lysates of HEK293FT cells transfected with ELAVL1-FLAG or WT cells; 4 °C overnight; IPs with or without RNase A (100 µg/ml, 1.5 h); elution with 3x FLAG peptide; immunoblot. To be noted: remark: other sources report otherwise. Background: Immunoblotting shows a protein as a band on a membrane.

Test [2] concerns the target T1, heterogeneous nuclear ribonucleoprotein M, C-terminally GFP-tagged (hnRNPM-GFP) (human), P52272.
T1 chain: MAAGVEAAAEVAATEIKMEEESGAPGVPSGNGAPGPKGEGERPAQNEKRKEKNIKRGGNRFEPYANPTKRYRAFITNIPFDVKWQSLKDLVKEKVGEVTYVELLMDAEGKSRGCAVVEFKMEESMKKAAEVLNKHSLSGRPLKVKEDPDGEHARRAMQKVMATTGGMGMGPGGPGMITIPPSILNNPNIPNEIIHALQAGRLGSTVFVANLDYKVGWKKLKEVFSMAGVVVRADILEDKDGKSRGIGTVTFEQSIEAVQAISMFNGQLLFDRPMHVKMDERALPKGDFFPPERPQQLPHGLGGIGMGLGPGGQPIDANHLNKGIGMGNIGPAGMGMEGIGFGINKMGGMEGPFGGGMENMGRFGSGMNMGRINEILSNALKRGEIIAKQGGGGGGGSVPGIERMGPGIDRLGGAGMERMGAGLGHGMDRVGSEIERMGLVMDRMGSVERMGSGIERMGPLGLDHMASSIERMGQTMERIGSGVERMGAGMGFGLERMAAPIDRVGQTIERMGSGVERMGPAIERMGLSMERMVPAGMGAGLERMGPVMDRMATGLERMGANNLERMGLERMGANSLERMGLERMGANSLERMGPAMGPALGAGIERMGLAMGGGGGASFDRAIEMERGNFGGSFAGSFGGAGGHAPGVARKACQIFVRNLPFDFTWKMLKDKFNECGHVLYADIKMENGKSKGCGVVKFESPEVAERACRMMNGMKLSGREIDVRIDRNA
Kind of test: proximity ligation; Duolink PLA in fixed PMA-differentiated THP-1 cells expressing hnRNPM-GFP, ELAVL1-GFP or GFP, non-stimulated or transfected with G3-YSD-AF647 (0.5 µg/ml, 4 h); anti-GFP with anti-pTBK1-Ser172 or anti-ELAVL1; puncta per cell counted as PLA score. To be noted: remark: other sources report otherwise.

Test [3] deals with T1, heterogeneous nuclear ribonucleoprotein …. Kind of test: co-IP; GFP-Trap magnetic agarose on lysates of THP-1 cells expressing hnRNPM-GFP or GFP, non-stimulated or pDNA-stimulated (0.1 µg/ml, 3 h); TAP lysis buffer, 4 °C overnight; IPs with or without RNase A (100 µg/ml, 1.5 h); immunoblot. To be noted: remark: other sources report otherwise.
In test [4] the target is ELAV-like protein 1, GFP-tagged (ELAVL1-GFP) (human) (UniProt Q15717). Put plainly: proximity ligation; Duolink PLA in fixed PMA-differentiated THP-1 cells expressing hnRNPM-GFP, ELAVL1-GFP or GFP, non-stimulated or transfected with G3-YSD-AF647 (0.5 µg/ml, 4 h); anti-GFP with anti-pTBK1-Ser172 or anti-ELAVL1; puncta per cell counted as PLA score.

No constants are given. Whether binding was seen depends on the method and setting. Binding seen in cells or lysates may run through a third protein. Some results given as binding are weak or reduced against the parent protein; the word gives no strength. For some assays here: Sequences can lack the tags named with a protein.

B1: IκB kinase β (IKKβ), endogenous in HEK293FT, O14920 1-756 (protein)
chain: MSWSPSLTTQTCGAWEMKERLGTGGFGNVIRWHNQETGEQIAIKQCRQELSPRNRERWCLEIQIMRRLTHPNVVAARDVPEGMQNLAPNDLPLLAMEYCQGGDLRKYLNQFENCCGLREGAILTLLSDIASALRYLHENRIIHRDLKPENIVLQQGEQRLIHKIIDLGYAKELDQGSLCTSFVGTLQYLAPELLEQQKYTVTVDYWSFGTLAFECITGFRPFLPNWQPVQWHSKVRQKSEVDIVVSEDLNGTVKFSSSLPYPNNLNSVLAERLEKWLQLMLMWHPRQRGTDPTYGPNGCFKALDDILNLKLVHILNMVTGTIHTYPVTEDESLQSLKARIQQDTGIPEEDQELLQEAGLALIPDKPATQCISDGKLNEGHTLDMDLVFLFDNSKITYETQISPRPQPESVSCILQEPKRNLAFFQLRKVWGQVWHSIQTLKEDCNRLQQGQRAAMMNLLRNNSCLSKMKNSMASMSQQLKAKLDFFKTSIQIDLEKYSEQTEFGITSDKLLLAWREMEQAVELCGRENEVKLLVERMMALQTDIVDLQRSPMGRKQGGTLDDLEEQARELYRRLREKPRDQRTEGDSQEMVRLLLQAIQSFEKKVRVIYTQLSKTVVCKQKALELLPKVEEVVSLMNEDEKTVVRLQEKRQKELWNLLKIACSKVRGPVSGSPDSMNASRLSQPGQLMSQPSTASNSLPEPAKKSEELVAEAHNLCTLLENAIQDTVREQDQSFTALDWSWLQTEEEEHSCLEQAS
For the molecule B1, the binding result in test [1] is “binds”.

B2: TBK1 phosphorylated at Ser172 (pTBK1-Ser172), endogenous in THP-1, Q9UHD2 1-729 (protein)
chain: MQSTSNHLWLLSDILGQGATANVFRGRHKKTGDLFAIKVFNNISFLRPVDVQMREFEVLKKLNHKNIVKLFAIEEETTTRHKVLIMEFCPCGSLYTVLEEPSNAYGLPESEFLIVLRDVVGGMNHLRENGIVHRDIKPGNIMRVIGEDGQSVYKLTDFGAARELEDDEQFVSLYGTEEYLHPDMYERAVLRKDHQKKYGATVDLWSIGVTFYHAATGSLPFRPFEGPRRNKEVMYKIITGKPSGAISGVQKAENGPIDWSGDMPVSCSLSRGLQVLLTPVLANILEADQEKCWGFDQFFAETSDILHRMVIHVFSLQQMTAHKIYIHSYNTATIFHELVYKQTKIISSNQELIYEGRRLVLEPGRLAQHFPKTTEENPIFVVSREPLNTIGLIYEKISLPKVHPRYDLDGDASMAKAITGVVCYACRIASTLLLYQELMRKGIRWLIELIKDDYNETVHKKTEVVITLDFCIRNIEKTVKVYEKLMKINLEAAELGEISDIHTKLLRLSSSQGTIETSLQDIDSRLSPGGSLADAWAHQEGTHPKDRNVEKLQVLLNCMTEIYYQFKKDKAERRLAYNEEQIHKFDKQKLYYHATKAMTHFTDECVKKYEAFLNKSEEWIRKMLHLRKQLLSLTNQCFDIEEEVSKYQEYTNELQETLPQKMFTASSGIKHTMTPIYPSSNTLVEMTLGMKKLKEEMEGVVKELAENNHILERFGSLTMDGGLRNVDCL
modifications: here or on the partner: phosphoserine at 172
As to B2, the binding result in test [2] and in test [3] was “binds” in each case.

B3: TBK1 phosphorylated at Ser172 (pTBK1-Ser172), endogenous in THP-1 (protein, UniProt Q9UHD2 1-729)
chain: B2 chain
modifications: phosphoserine at 172
As to B3, the binding result in test [4] is recorded as “binds”.

B4: IκB kinase ε (IKKε), endogenous in HEK293FT, Q14164 1-716 (protein)
chain: MQSTANYLWHTDDLLGQGATASVYKARNKKSGELVAVKVFNTTSYLRPREVQVREFEVLRKLNHQNIVKLFAVEETGGSRQKVLVMEYCSSGSLLSVLESPENAFGLPEDEFLVVLRCVVAGMNHLRENGIVHRDIKPGNIMRLVGEEGQSIYKLTDFGAARELDDDEKFVSVYGTEEYLHPDMYERAVLRKPQQKAFGVTVDLWSIGVTLYHAATGSLPFIPFGGPRRNKEIMYRITTEKPAGAIAGAQRRENGPLEWSYTLPITCQLSLGLQSQLVPILANILEVEQAKCWGFDQFFAETSDILQRVVVHVFSLSQAVLHHIYIHAHNTIAIFQEAVHKQTSVAPRHQEYLFEGHLCVLEPSVSAQHIAHTTASSPLTLFSTAIPKGLAFRDPALDVPKFVPKVDLQADYNTAKGVLGAGYQALRLARALLDGQELMFRGLHWVMEVLQATCRRTLEVARTSLLYLSSSLGTERFSSVAGTPEIQELKAAAELRSRLRTLAEVLSRCSQNITETQESLSSLNRELVKSRDQVHEDRSIQQIQCCLDKMNFIYKQFKKSRMRPGLGYNEEQIHKLDKVNFSHLAKRLLQVFQEECVQKYQASLVTHGKRMRVVHETRNHLRLVGCSVAACNTEAQGVQESLSKLLEELSHQLLQDRAKGAQASPPPIAPYPSPTRKDLLLHMQELCEGMKLLASDLLDNNRIIERLNRVPAPPDV
With B4, in test [1], the binding result was “binds”.
